Laboratory results reported in PubChem BioAssay AID1240 (Sanford-Burnham Center for Chemical Genomics, 2008).
About 800 (1.6%) of roughly 50,000 compounds showed an effect of 50% or more. This is one part of the list.

These compounds were tested against Bcl-2-like protein 10 (Homo sapiens) (UniProt Q9HD36) (assay: Phenotype converters, Bcl-B/TR3 peptide binding displacement, primary biochemical FP (AID 1240;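 note: 0% = Bcl-B with tracer peptide and DMSO and 100% = tracer peptide lacking Bcl-B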)). Settings: GST-Bcl-B / FITC-TR3 peptide fluorescence polarization; stronger effect = higher value; compound at 3.75 mg/L.
Sequence of UniProt Q9HD36 (Q9HD36 whole entry, looked up): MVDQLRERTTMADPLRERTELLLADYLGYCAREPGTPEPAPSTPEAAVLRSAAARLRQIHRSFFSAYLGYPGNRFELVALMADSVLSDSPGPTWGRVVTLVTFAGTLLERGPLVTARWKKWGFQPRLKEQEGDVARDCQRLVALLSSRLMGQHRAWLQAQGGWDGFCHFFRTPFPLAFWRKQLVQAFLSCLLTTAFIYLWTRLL

| SMILES | displacement |
| --- | --- |
| Brc1ccc(OCCCCCN2CCCCC2)cc1 | 7.9% |
| C(=N/Nc1nc2ccccc2[nH]1)/c1ccc(N2CCOCC2)cc1 | -10% |
| Cc1ccc(C(=O)Nc2ccccc2C(=O)N2CCC(C)CC2)cc1 | -9.9% |
| COc1ccc(-c2cc(-c3ccccc3)n[nH]2)c(O)c1 | 0.3% |
| O=c1oc2ccc([N+](=O)[O-])cc2c(SCCNc2ccccc2)c1[N+](=O)[O-] | -8.1% |
| O=C(CCn1c2ccccc2c2ccccc21)NNC(=S)Nc1ccccc1 | -12.7% |
| COc1cccc(OCCCCNCC2CCCO2)c1 (configuration not stated) | -8.5% |
| COc1ccc([N+](=O)[O-])cc1/C=C1/SC(=O)NC1=O | 9.2% |
| COC(=O)CNC(c1ccccc1Cl)c1cc(Br)ccc1NC(=O)CCN1CCOCC1 (configuration not stated) | 1.4% |
| O=[N+]([O-])c1ccc(Oc2ccc(S(=O)(=O)N3CCCC3)cc2)cc1 | -8% |
| O=[N+]([O-])c1cccc(C2Nc3ccc4ccccc4c3C3C=CCC32)c1 (configuration not stated) | 11.1% |
| O=[N+]([O-])c1cc2nc(N3CCOCC3)c(N3CCOCC3)nc2cc1[N+](=O)[O-] | -4.6% |
| CCOc1ccc2c(c1)-c1c(ssc1=S)C(C)(C)N2C(=O)c1ccc(OC)c(OC)c1 | 4.8% |
| O=C(Nc1cccc2ccccc12)C1CC2CCC1C2 (configuration not stated) | -12.3% |
| Cc1cc(Cl)ccc1OCC(=O)Nc1cc(Cl)cc(Cl)c1 | 7.9% |
| CCOc1ccc(C(=O)Nc2ccc(OC)c(OC)c2)cc1[N+](=O)[O-] | 10.1% |
| CCCN(CCC)c1ccc(C2NC(=O)c3c(sc4c3CCN(C)C4)N2)cc1 (configuration not stated) | -17.8% |
| CCc1ccccc1NC(=O)C1CC(=O)N(c2ccc(C)cc2)C1 (configuration not stated) | 10.4% |
| COc1cc(NC(=O)/C=C/c2ccc(OC)c(Br)c2)c(OC)cc1Cl | 5.1% |
| Cc1ccc(S(=O)(=O)/N=C(\N)c2ccc(F)cc2)cc1 | 15.6% |
| CCOc1ccc(-c2nc3nc(C)c(Br)cc3[nH]2)cc1 | 5.7% |
| O=C(Cc1ccccc1)N1CCN(c2ccc([N+](=O)[O-])cc2Cl)CC1 | -1.3% |

| SMILES | displacement |
| --- | --- |
| Cc1ccc(-c2csc(NC(=O)c3ccc(F)cc3)n2)cc1 | -1.1% |
| CCOC(=O)c1c(NC(=O)c2ccc(OC)c(OC)c2)sc(C(=O)Nc2ccccc2F)c1C | 2.9% |
| CC(=O)Nc1ccc2cc(S(=O)(=O)O)cc(OS(=O)(=O)c3ccccc3)c2c1 | -1.2% |
| Cc1ccc(S(=O)(=O)Nc2cccc(-c3csc(-c4ccccc4)n3)c2)cc1[N+](=O)[O-] | 17.5% |
| Cc1nnc(N/N=C/c2ccc(C(=O)O)cc2)[nH]c1=O | -23.2% |
| Cc1cc(C)nc(/N=C(/N)Nc2ccc([N+](=O)[O-])cc2C)n1 | -8.4% |
| CCN(CC)c1ccc(NC(=O)c2ccc(-c3ccc([N+](=O)[O-])cc3C)o2)cc1 | 13.9% |
| O=C1C(=O)N(Cc2cccnc2)C(c2ccc(Br)cc2)/C1=C(\O)c1ccccc1 (configuration not stated) | -25.2% |
| CN1CCN(c2ccc([N+](=O)[O-])c(NCCOc3ccc(Cl)cc3)c2)CC1 | 3.8% |
| Cc1sc2nc(-c3cc(Cl)ccc3O)[nH]c(=O)c2c1C | -10.3% |
| NC(=O)c1ccc(NC(=O)c2cc(C(F)(F)F)cc(C(F)(F)F)c2)cc1 | -19.4% |
| CC1=CC(C)(C)N(C(=O)NC2CCCCC2)c2cc(C)ccc21 | -1% |
| CN1C(=O)C2(NN=C(c3cccc4ccccc34)S2)c2ccccc21 (configuration not stated) | 15.4% |
| Cc1ccc(C)c(NC(=O)c2ccc(OCC(C)C)cc2)c1 | 7.8% |
| CCOC(=O)c1cnc2cc(-c3ccccc3Cl)[nH]n2c1=O | 11.4% |
| O=C(Nc1cccc(C(F)(F)F)c1)c1ccc(C(=O)c2ccccc2)o1 | -9.7% |
| COc1cc(OC)c(OC)cc1CNc1cccc(C)c1 | 4.3% |
| COc1cc(/C=c2/sc3nc4cc(C)c(C)cc4n3c2=O)ccc1OCc1ccccc1 | 6.4% |
| CC1=NN(c2nc(-c3ccc(F)cc3)cs2)C(=O)/C1=C\c1ccc2c(c1)OCO2 | -2.6% |
| COc1ccc(OC)c(/C=C2\C(=O)N(c3cccc(C(=O)O)c3)N=C2C)c1 | 2.5% |
| O=C1C(=O)N(c2nccs2)C(c2ccc(F)cc2)/C1=C(/O)c1ccc(Cl)cc1 (configuration not stated) | 8.8% |
| NC(=O)c1cccc(N=Cc2c[nH]c3ccccc23)c1 | -9.1% |

| SMILES | displacement |
| --- | --- |
| Cc1ccc(N=Cc2c(O)c([N+](=O)[O-])cc3oc4c(c23)CCCC4)cc1C | -1.4% |
| Cc1ccc(OCC(=O)Nc2ccc(F)c([N+](=O)[O-])c2)cc1C | 11.4% |
| CCOc1ccc(C(=O)Nc2ccc(N3CCOCC3)c(Cl)c2)cc1Cl | 13.8% |
| COc1cc(/C=C2/SC(=S)NC2=O)cc(Cl)c1OCc1ccc(Cl)cc1Cl | 6.6% |
| N/C(=N\OC(=O)Cc1ccccc1)c1ccncc1 | -7.8% |
| CCOC(=O)c1ccc2c(c1)C1C=CCC1C(c1ccc(Cl)cc1)N2 (configuration not stated) | 0.9% |
| CC(C)C(=O)N1c2ccccc2C(N(C(=O)C(C)C)c2ccccc2)CC1C (configuration not stated) | -0.6% |
| CCc1cc(C)cc(OCCn2cc(/C=C3/SC(=S)NC3=O)c3ccccc32)c1 | 78.8% |
| COc1ccc(CNC(=O)Cc2ccc(Cl)cc2)cc1 | 1.3% |
| Nc1nnc(CSCc2ccc(Cl)cc2Cl)s1 | 4.5% |
| CCOc1cc(/C=C2\C(=O)NC(=O)N(c3ccc(Br)c(C)c3)C2=O)cc(Cl)c1O | -6.8% |
| CN(C)/N=C\c1ccc(-c2ccc3c(c2)C(=O)NC3=O)o1 | 2.8% |
| O=C(C1=C(O)C(=O)N(c2nncs2)C1c1ccc(F)cc1)c1cccs1 (configuration not stated) | 109% |
| CCN(CC)S(=O)(=O)c1ccc(NC(=O)c2cccc([N+](=O)[O-])c2)cc1 | -2.7% |
| CCOC(=O)c1c(NC(=O)COc2ccc(Cl)cc2)sc(C(=O)Nc2ccc(OC)cc2OC)c1C | 5.3% |
| COc1ccc(NC(=O)c2cccc(I)c2)cc1Cl | 7.8% |
| CCCOC(=O)c1ccccc1OC(=O)c1ccc([N+](=O)[O-])cc1 | -10.2% |
| Nn1c(SCC(=O)O)nnc1-c1ccc(Br)cc1 | 0.4% |
| O=C(NN1C(=O)c2ccccc2C1=O)c1ccc(O)cc1 | 5.9% |
| C=CCNc1nc2ccccn2c(=O)c1/C=C1\SC(=S)N(CCc2ccccc2)C1=O | -26.4% |
| CC(C)N1CCc2c(sc3[nH]c(=S)n(-c4ccccc4)c(=O)c23)C1 | -14.6% |
| C(=N\N=C(c1ccccc1)c1ccccc1)/c1cccnc1 | -12.3% |

| SMILES | displacement |
| --- | --- |
| CCN(CC)c1ccc(C(=O)N2CCN(c3cccc(Cl)c3)CC2)cc1 | -0.6% |
| COC(=O)c1c(-c2ccc(Br)cc2)csc1NC(=O)CCCC(=O)O | -1.1% |
| CCOC(=O)c1ccccc1NC(=O)CN(c1ccc(OC)c(Cl)c1)S(=O)(=O)c1ccccc1 | 12.6% |
| CC1=C(C(=O)OCCOc2ccccc2)C(c2ccc(Cl)cc2)C2=C(CC(C)(C)CC2=O)N1 (configuration not stated) | 2.5% |
| COc1ccc(C(=O)OCC(=O)c2ccc([N+](=O)[O-])cc2)cc1OC | -9.8% |
| CCSc1nnc(NC(=O)c2ccccc2)s1 | -2% |
| O=C(N=Nc1c(O)n(CN2CCCCC2)c2ccc(Br)cc12)c1cccnc1 | -14.2% |
| Cc1c(Cl)cccc1N=C1NC(=O)/C(=C/c2cccc(O)c2)S1 | -14.8% |
| COc1ccccc1NC(=O)C(=O)NCc1cccnc1 | 11.1% |
| Cc1cc(=O)[nH]c(N/N=C/c2ccc(O)cc2)n1 | 3.8% |
| Cc1cccc(C(C)C)c1NC(=O)Nc1ccc(Cl)cc1 | -1.2% |
| COc1cc(NC(=O)c2ccccc2F)ccc1NC(=O)c1cc2ccccc2o1 | 4.5% |
| CC1CCC(N2CCN(Cc3cccc(Br)c3)CC2)CC1 (configuration not stated) | 1.5% |
| CCOC(=O)C1=C(O)/C(=C/c2cccc(O)c2)SC1=Nc1ccccc1 | -54.7% |
| CCOc1ccc(N(C)S(=O)(=O)c2ccc(Cl)cc2)cc1 | 3.2% |
| CCOC(=O)C(=CNc1cccc(Br)c1)C(=O)OCC | 4.8% |
| COc1ccc(C(=O)CSc2ncn[nH]2)cc1[N+](=O)[O-] | 12.8% |
| C=CCNC(=O)CN(c1ccc(Oc2ccccc2)cc1)S(C)(=O)=O | 6.6% |
| Cc1ccc2nc(-c3cccc(NC(=S)NC(=O)c4ccco4)c3)oc2c1 | 11.6% |
| O=[N+]([O-])c1cccc2c1NC(c1ccc(F)cc1)C1CC=CC21 (configuration not stated) | 7.1% |
| CCOc1ccc(/C=C/C(=O)Nc2cc([N+](=O)[O-])ccc2C)cc1OC | 14.1% |
| CC1=CC(C)(C)N(C(=O)CSc2nc3ccccc3s2)c2ccccc21 | -1.1% |

| SMILES | displacement |
| --- | --- |
| COc1ccc(CCNC(=O)C(=O)N2CCCCCC2)cc1OC | -1.3% |
| Cc1c(NC(=O)CCN2C(=O)S/C(=C\c3ccc(Cl)cc3)C2=O)c(=O)n(-c2ccccc2)n1C | -2% |
| COc1cccc2cc(-c3nc(-c4cccc([N+](=O)[O-])c4)cs3)c(=O)oc12 | -1.9% |
| CCc1c(C)sc(NC(=O)COc2ccccc2)c1C(N)=O | 7.7% |
| COc1cccc(N/C(=N/S(=O)(=O)c2ccc(C)cc2)Nc2nc(C)cc(C)n2)c1 | 13.6% |
| NC(=O)CCCN1C(=O)/C(=C/c2ccccc2)SC1=S | 28.9% |
| O=C(/C=C/Nc1ccc(Br)c(Cl)c1)c1ccccc1 | -1.3% |
| CCOc1cc(/C=C2/C(=O)NC(=O)N(C)C2=O)cc(Cl)c1O | -11.6% |
| O=C(O)C1CCCCC1C(=O)Nc1nc2ccccc2s1 (configuration not stated) | 2.2% |
| COc1ccccc1C1CC(c2ccc(C)cc2)=NN1C(=O)CCC(=O)O (configuration not stated) | 1.6% |
| O=C1C2ON(c3ccccc3)C(c3ccccn3)C2C(=O)N1c1ccc(Br)cc1 (configuration not stated) | 5.5% |
| CC(=O)Nc1ccc(NS(=O)(=O)c2cc(Cl)ccc2Cl)cc1 | 10.6% |
| COc1ccc(-c2cc(C(=O)Nc3ncccc3Cl)c3ccccc3n2)cc1OC | -8.7% |
| Nc1nnnn1CC(=O)OCC(=O)c1ccccc1 | 1.1% |
| Cc1ccc([N+](=O)[O-])c2c1NC(c1ccc(Br)cc1)C1CC=CC21 (configuration not stated) | 5.2% |
| O=C(NCCCN1CCOCC1)C(=O)NC1CCCCC1 | -9.7% |
| CC(=O)C1=C(O)CC(C)(C)CC1=NCc1ccccc1 | 3.6% |
| O=C(Nc1ccccc1)c1ccc(Cl)c(NC(=O)c2cccs2)c1 | 1.2% |
| Cc1ccc(NCN2C(=O)CSC2=O)c(C)c1 | 6.1% |
